# According to PMC5515408:
# The other results are listed elsewhere or left out. At the low end of the ranking the order means little.
# Tested on: MYC (p64) + MAX (p21), in MYC:MAX
# Test: protein-binding microarray (anti-MAX antibody)
# Conditions: PBM: 15 mM Tris-HCl pH 7.5, 100 mM KCl, 0.075% NP40, 7.5 mM beta-mercaptoethanol, 375 ng/ul BSA, 8 ng/ul poly(dA-dT):(dA-dT), 550 ng complex, 60 min, room …; high values mean tight binding; double strand, one strand shown; sequences stand for … in CCGGC…TTAATAGCTAAGATTACTATATCGACG
row,Sequence,binding signal (log2 normalized fluorescence)
1,TGACATCAGGTA,0.0135
2,TGAGGAGCCGTA,-0.035
3,CAAATACAGAGC,-0.0563
4,TGAGTATCAGTA,-0.177
5,TGAGAACCCGTA,0.133
6,TGAGTATATGTA,-0.133
7,TGACTATCCGTA,-0.00348
8,TGAGTGTCTGTA,0.217
9,TGAAGATTGGTA,-0.185
10,ACACACCTGGTA,0.535
11,TGACACTCAGTA,0.215
12,TGATCTACTGTA,0.103
13,TGATATTCGGTA,-0.126
14,TGAGCATTAGTA,0.01
15,TGAGCAGAGGTA,0.0598
16,TGAAACTGCGTA,0.16
17,TGATAACCTGTA,0.136
18,TGAGAAGAAGTA,-0.209
19,TGAAATTATGTA,-0.0628
20,TGACAAGGGGTA,0.364
21,TGACAAGCGGGA,0.16
22,AAGTAGCGCACA,0.538
23,TGAAGCCTTGTA,-0.0498
24,TGAGAGCAAGTA,0.116
25,TGATTCGAAGTA,-0.235

row,Sequence,binding signal (log2 normalized fluorescence)
1,TGAATTCCCGTA,0.003
2,TGAGCATACGTA,0.288
3,AGGGTGTACTGG,0.215
4,TGAGACATCGTA,0.0468
5,TGATTTTGGGTA,-0.124
6,TGATGAGAAGTA,-0.259
7,TGAGTTCGTGTA,0.152
8,TGAGGAATAGTA,-0.22
9,TGAATCGGCGTA,-0.0713
10,TGATGCTAAGTA,-0.0239
11,TGAGGACCAGTA,0.0701
12,TGAGGCATGGTA,0.43
13,TGAAGTGCCGTA,0.122
14,TGAAGACTAGTA,-0.0517
15,TGACGCCCCGTA,0.102
16,TGACGTCAAGTA,-0.0202
17,TGAGGGACAGTA,0.0608
18,TGACTTGGAGTA,-0.083
19,TGAATTTATGTA,-0.0326
20,TGAGAGCCGGTA,-0.221
21,TGTGCCGTGGTA,0.191
22,TGAGAGCGCGTA,0.288
23,TGACGCGTGGTG,0.614
24,TGACCCGGGGTA,0.268
25,TTACACGTGATA,0.75

row,Sequence,binding signal (log2 normalized fluorescence)
1,TGAAAACCGGTA,0.185
2,CCCCGTGGTTAC,0.418
3,TGAAACCTGGTA,0.241
4,GGATACGTGGTA,0.475
5,TGGCAACTGGTA,0.0475
6,TGAAACCGTGTA,0.331
7,TGAGTCTGGGTA,-0.221
8,TGACATGGTGTA,0.337
9,TGAGTGTGCGTA,0.13
10,TGACTGTTTGTA,-0.0198
11,TGAAGGACAGTA,-0.084
12,TGAATTACCGTA,0.041
13,TGACATAGGGTA,0.203
14,TCCTACGTGGTA,0.54
15,TGATGAAGCGTA,-0.0174
16,TGAGAACGGGTA,-0.00337
17,TGAGACTTTGTA,0.000456
18,TGATGGGCGGTA,0.055
19,TGACATCTCGTA,0.221
20,TGAGTTCATGTA,0.228
21,TGACTTATAGTA,0.0293
22,TGACACAAGGTA,0.501
23,TGATCTAGGGTA,-0.27
24,TGAGAGTGCGTA,0.111
25,TGACCTCTTGTA,0.189

row,Sequence,binding signal (log2 normalized fluorescence)
1,TGAAGTCCGGTA,-0.0794
2,TGACACGTTTCA,0.667
3,TGATCGCTTGTA,-0.00084
4,TGAATCGGTGTA,-0.0501
5,TGACGTTGAGTA,0.0225
6,TGACCCAGAGTA,-0.0825
7,TGATGTTTCGTA,-0.0689
8,TGATGGAGGGTA,0.167
9,TGACGTGGAGTA,0.368
10,TGACCTAGAGTA,-0.0525
11,TGAGGTAAAGTA,-0.193
12,TGAATGCGTGTA,0.372
13,TGAAGACTGGTA,0.0776
14,TGATACTGCGTA,0.0751
15,TGAATACCAGTA,-0.12
16,AGACACGGGGTA,0.561
17,TGACTTCTAGTA,-0.0933
18,TGAGCGGTGGTA,0.141
19,TGACTAATGGTA,0.185
20,TGAACGCCGGTA,0.0499
21,TGACACGAAATA,0.123
22,TGAGCTCGAGTA,0.169
23,TGAACCACGGTA,0.424
24,TGACGGTTGGTA,0.0823
25,TGAATGCTCGTA,0.148

row,Sequence,binding signal (log2 normalized fluorescence)
1,TGATATGGGGTA,0.0454
2,TGAAAGCCAGTA,-0.0231
3,TGATGGTCTGTA,0.179
4,TGATGGGACGTA,0.0887
5,TGAGACGCGGTT,0.131
6,TGATTGCTTGTA,-0.0473
7,TAAGACGTGGTA,0.411
8,TGAGAAGCTGTA,-0.115
9,TGAGGTCCTGTA,0.0181
10,TGAGATTTTGTA,-0.367
11,TGATGGTAAGTA,0.122
12,TGATTATCGGTA,-0.14
13,TGATTAGGTGTA,-0.194
14,TGGCACTTTGTA,0.0131
15,TGAATAAAGGTA,-0.0629
16,TGAATTCTAGTA,-0.092
17,TGAGCAGCAGTA,0.0402
18,TTAAAAGTGGTA,0.166
19,TGATACGCCGTA,0.0846
20,TGACTTCCTGTA,0.0222
21,TGACCGCGCGTA,0.489
22,TGACGATGCGTA,0.282
23,TGATGGCACGTA,0.319
24,TGAACCCCCGTA,0.133
25,TGATAACGAGTA,0.261

row,Sequence,binding signal (log2 normalized fluorescence)
1,CCGCTTAATTTC,-0.0443
2,TGACGAGTGGTA,0.147
3,TGAGGCCCGGTA,-0.103
4,TGAACCACAGTA,0.183
5,TGATACTGTGTA,0.122
6,TGATAATGAGTA,-0.000498
7,TGATTGTTGGTA,-0.114
8,TGATCTTCTGTA,-0.129
9,TGACTATTAGTA,-0.115
10,TGAAACGTTGTA,0.435
11,TCGGACGTGGTA,0.304
12,TGACGACTAGTA,0.163
13,TGAACCGTGGTC,0.295
14,AAGGGTTTTCTA,0.201
15,TGACATAGAGTA,0.00694
16,CTTACCACCCAG,0.395
17,TGATTAGATGTA,-0.28
18,TGACCCAGCGTA,-0.0202
19,TGATAGCCCGTA,-0.0286
20,TGAAAGAGGGTA,0.053
21,TGAACAGGGGTA,0.32
22,TGACTACCAGTA,0.0544
23,TGACACGTGATT,0.626
24,TGATTTGGTGTA,-0.055
25,CGTTTAGCCGTC,-0.449

row,Sequence,binding signal (log2 normalized fluorescence)
1,TGAAGGCTGGTA,-0.146
2,TGATCGTCCGTA,-0.0196
3,TGAGAACATGTA,0.438
4,TGAGGATCCGTA,-0.1
5,TGATTCTTGGTA,-0.188
6,TGAGTCAACGTA,0.0142
7,TGATAATGTGTA,0.181
8,TGAATTATAGTA,-0.0472
9,TGATTGGAGGTA,-0.0145
10,TGAGGACTCGTA,0.0239
11,TGATGCCAAGTA,-0.0101
12,TGACGCGTTGTA,0.37
13,TGAAGTATAGTA,-0.0762
14,TGATACGTAGTA,-0.252
15,TGAAAGTGAGTA,0.0332
16,TGAGGTACGGTA,0.134
17,TGAAGGTCTGTA,-0.109
18,TGATATTTCGTA,-0.108
19,TTACACGTGGTT,0.721
20,AGCTGGATACTC,0.155
21,TGAAAAATTGTA,-0.139
22,TGAGAGTCTGTA,-0.0773
23,TGACGTCTTGTA,0.0699
24,TGACCCATTGTA,0.00975
25,TGAGCTTATGTA,0.0336
